Data taken from the supplement of paper PMC8728848.
The other results are listed elsewhere or left out.

Columns and labels:
Test in all cases: glycan array binding signal (z-score within array); higher = stronger binding
Settings in all cases: glycan notation: IUPAC condensed, linker removed
[1] = molecular target: Neu5Ac(a2-3)Gal(b1-4)[Fuc(a1-3)]GlcNAc(b1-3)Gal(b1-4)[Fuc(a1-3)]GlcNAc(b1-3)Gal(b1-4)[Fuc(a1-3)]GlcNAc
Procedure, shortened: (§1)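 The Consortium for Functional Glycomics database supplied 3228 glycan arrays, of which those lacking an available protein sequence were dropped. The binding signal, a within-array Z-score, was averaged across arrays of the same protein sequence and across linkers. Negative scores can be read as non-binding.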

[2] = molecular target: Neu5Ac(a2-3)Gal(b1-4)[Fuc(a1-3)]GlcNAc(b1-3)GalNAc
Procedure, shortened: as §1

[3] = molecular target: Neu5Ac(a2-3)Gal(b1-4)[Fuc(a1-3)]GlcNAc(b1-6)[Gal(b1-3)]GalNAc
Procedure, shortened: as §1

[4] = molecular target: Neu5Ac(a2-3)Gal(b1-4)[Fuc(a1-3)]GlcNAc(b1-6)[Neu5Ac(a2-3)Gal(b1-3)]GalNAc
Procedure, shortened: as §1

[5] = molecular target: Neu5Ac(a2-3)Gal(b1-4)[Fuc(a1-3)]GlcNAc6S
Procedure, shortened: as §1

[6] = molecular target: Neu5Ac(a2-3)Gal6S(b1-4)GlcNAc
Procedure, shortened: as §1

[7] = molecular target: Neu5Ac(a2-3)Gal6S(b1-4)[Fuc(a1-3)]GlcNAc
Procedure, shortened: as §1

Neu5Ac(a2-3)GalNAc = molecular target: Neu5Ac(a2-3)GalNAc
Procedure, shortened: as §1

[8] = molecular target: Neu5Ac(a2-3)GalNAc(b1-4)GlcNAc
Procedure, shortened: as §1

[9] = molecular target: Neu5Ac(a2-3)[GalNAc(b1-4)]Gal(b1-4)Glc
Procedure, shortened: as §1

[10] = molecular target: Neu5Ac(a2-3)[GalNAc(b1-4)]Gal(b1-4)GlcNAc
Procedure, shortened: as §1

[11] = molecular target: Neu5Ac(a2-3)[GalNAc(b1-4)]Gal(b1-4)GlcNAc(b1-3)GalNAc
Procedure, shortened: as §1

[12] = molecular target: Neu5Ac(a2-3)[Neu5Ac(a2-6)]GalNAc
Procedure, shortened: as §1

Neu5Ac(a2-6)Gal = molecular target: Neu5Ac(a2-6)Gal
Procedure, shortened: as §1

[13] = molecular target: Neu5Ac(a2-6)Gal(b1-3)GlcNAc(b1-3)[Gal(b1-4)GlcNAc(b1-6)]Gal(b1-4)Glc
Procedure, shortened: as §1

Neu5Ac(a2-6)Gal(b1-4)Glc = molecular target: Neu5Ac(a2-6)Gal(b1-4)Glc
Procedure, shortened: as §1

[14] = molecular target: Neu5Ac(a2-6)Gal(b1-4)GlcNAc
Procedure, shortened: as §1

[15] = molecular target: Neu5Ac(a2-6)Gal(b1-4)GlcNAc(b1-2)Man
Procedure, shortened: as §1

[16] = molecular target: Neu5Ac(a2-6)Gal(b1-4)GlcNAc(b1-2)Man(a1-3)Man(b1-4)GlcNAc(b1-4)GlcNAc
Procedure, shortened: as §1

[17] = molecular target: Neu5Ac(a2-6)Gal(b1-4)GlcNAc(b1-2)Man(a1-3)[Gal(b1-4)GlcNAc(b1-2)Man(a1-6)]Man(b1-4)GlcNAc(b1-4)GlcNAc
Procedure, shortened: as §1

[18] = molecular target: Neu5Ac(a2-6)Gal(b1-4)GlcNAc(b1-2)Man(a1-3)[GlcNAc(b1-2)Man(a1-6)]Man(b1-4)GlcNAc(b1-4)GlcNAc
Procedure, shortened: as §1

[19] = molecular target: Neu5Ac(a2-6)Gal(b1-4)GlcNAc(b1-2)Man(a1-3)[GlcNAc(b1-2)Man(b1-4)GlcNAc(b1-2)Man(a1-6)]Man(b1-4)GlcNAc(b1-4)GlcNAc
Procedure, shortened: as §1

[20] = molecular target: Neu5Ac(a2-6)Gal(b1-4)GlcNAc(b1-2)Man(a1-3)[GlcNAc(b1-4)][Neu5Ac(a2-6)Gal(b1-4)GlcNAc(b1-2)Man(a1-6)]Man(b1-4)GlcNAc(b1-4)GlcNAc
Procedure, shortened: as §1

[21] = molecular target: Neu5Ac(a2-6)Gal(b1-4)GlcNAc(b1-2)Man(a1-3)[Man(a1-6)]Man(b1-4)GlcNAc(b1-4)GlcNAc
Procedure, shortened: as §1

[22] = molecular target: Neu5Ac(a2-6)Gal(b1-4)GlcNAc(b1-2)Man(a1-3)[Neu5Ac(a2-3)Gal(b1-4)GlcNAc(b1-2)Man(a1-6)]Man(b1-4)GlcNAc(b1-4)GlcNAc
Procedure, shortened: as §1

[23] = molecular target: Neu5Ac(a2-6)Gal(b1-4)GlcNAc(b1-2)Man(a1-3)[Neu5Ac(a2-6)Gal(b1-4)GlcNAc(b1-2)Man(a1-6)]Man(b1-4)GlcNAc(b1-4)GlcNAc
Procedure, shortened: as §1

[24] = molecular target: Neu5Ac(a2-6)Gal(b1-4)GlcNAc(b1-2)Man(a1-3)[Neu5Ac(a2-6)Gal(b1-4)GlcNAc(b1-2)Man(a1-6)]Man(b1-4)GlcNAc(b1-4)[Fuc(a1-6)]GlcNAc
Procedure, shortened: as §1

[25] = molecular target: Neu5Ac(a2-6)Gal(b1-4)GlcNAc(b1-2)Man(a1-6)Man(b1-4)GlcNAc(b1-4)GlcNAc
Procedure, shortened: as §1

[26] = molecular target: Neu5Ac(a2-6)Gal(b1-4)GlcNAc(b1-2)Man(a1-6)[Gal(b1-4)GlcNAc(b1-2)Man(a1-3)]Man(b1-4)GlcNAc(b1-4)GlcNAc
Procedure, shortened: as §1

[27] = molecular target: Neu5Ac(a2-6)Gal(b1-4)GlcNAc(b1-2)Man(a1-6)[GlcNAc(b1-2)Man(a1-3)]Man(b1-4)GlcNAc(b1-4)GlcNAc
Procedure, shortened: as §1

[28] = molecular target: Neu5Ac(a2-6)Gal(b1-4)GlcNAc(b1-2)Man(a1-6)[Man(a1-3)]Man(b1-4)GlcNAc(b1-4)GlcNAc
Procedure, shortened: as §1

[29] = molecular target: Neu5Ac(a2-6)Gal(b1-4)GlcNAc(b1-2)[Neu5Ac(a2-6)Gal(b1-4)GlcNAc(b1-4)]Man(a1-3)[GlcNAc(b1-4)][Neu5Ac(a2-6)Gal(b1-4)GlcNAc(b1-2)[Neu5Ac(a2-6)Gal(b1-4)GlcNAc(b1-6)]Man(a1-6)]Man(b1-4)GlcNAc(b1-4)GlcNAc
Procedure, shortened: as §1

[30] = molecular target: Neu5Ac(a2-6)Gal(b1-4)GlcNAc(b1-2)[Neu5Ac(a2-6)Gal(b1-4)GlcNAc(b1-4)]Man(a1-3)[GlcNAc(b1-4)][Neu5Ac(a2-6)Gal(b1-4)GlcNAc(b1-4)Man(a1-6)]Man(b1-4)GlcNAc(b1-4)GlcNAc
Procedure, shortened: as §1

[31] = molecular target: Neu5Ac(a2-6)Gal(b1-4)GlcNAc(b1-2)[Neu5Ac(a2-6)Gal(b1-4)GlcNAc(b1-6)]Man(a1-6)[Neu5Ac(a2-6)Gal(b1-4)GlcNAc(b1-2)Man(a1-3)][GlcNAc(b1-4)]Man(b1-4)GlcNAc(b1-4)GlcNAc
Procedure, shortened: as §1

[32] = molecular target: Neu5Ac(a2-6)Gal(b1-4)GlcNAc(b1-3)Gal(b1-3)GlcNAc
Procedure, shortened: as §1

[33] = molecular target: Neu5Ac(a2-6)Gal(b1-4)GlcNAc(b1-3)Gal(b1-4)GlcNAc
Procedure, shortened: as §1

[34] = molecular target: Neu5Ac(a2-6)Gal(b1-4)GlcNAc(b1-3)Gal(b1-4)GlcNAc(b1-2)Man(a1-3)[Neu5Ac(a2-6)Gal(b1-4)GlcNAc(b1-3)Gal(b1-4)GlcNAc(b1-2)Man(a1-6)]GalNAc
Procedure, shortened: as §1

[35] = molecular target: Neu5Ac(a2-6)Gal(b1-4)GlcNAc(b1-3)Gal(b1-4)GlcNAc(b1-3)Gal(b1-4)GlcNAc
Procedure, shortened: as §1

[36] = molecular target: Neu5Ac(a2-6)Gal(b1-4)GlcNAc(b1-3)Gal(b1-4)GlcNAc(b1-3)Gal(b1-4)GlcNAc(b1-2)Man(a1-3)[Neu5Ac(a2-6)Gal(b1-4)GlcNAc(b1-3)Gal(b1-4)GlcNAc(b1-3)Gal(b1-4)GlcNAc(b1-2)Man(a1-6)]GalNAc
Procedure, shortened: as §1

[37] = molecular target: Neu5Ac(a2-6)Gal(b1-4)GlcNAc(b1-3)Gal(b1-4)GlcNAc(b1-3)GalNAc
Procedure, shortened: as §1

[38] = molecular target: Neu5Ac(a2-6)Gal(b1-4)GlcNAc(b1-3)Gal(b1-4)GlcNAc(b1-3)[Neu5Ac(a2-6)Gal(b1-4)GlcNAc(b1-3)Gal(b1-4)GlcNAc(b1-6)]GalNAc
Procedure, shortened: as §1

[39] = molecular target: Neu5Ac(a2-6)Gal(b1-4)GlcNAc(b1-3)Gal(b1-4)GlcNAc(b1-6)[Gal(b1-3)]GalNAc
Procedure, shortened: as §1

B1: PpFlo2 (Pichia pastoris) (protein)
chain: MGSSHHHHHHSSGLVPRGSHMDDSGNGDNSDTAYGCDITTNAVDGFDATIYQYNANDLRLIRDPTFMSTGYLGRNVLNKISGVTVPGFNIWNPSSRTATVYGVKNVNYYNMVLELKGYFKADVSGDYKLTLSHIDDSSMLFFGKETAFKCCDAGSIPLNEAPTDYSLFTIKPSNQVNSEVISATQYLEAGKYYPVRIVFVNALERARFDFKLTIPSGAVLDDFQNYIYQFGDLDENSCHE
[1]
  glycan array binding signal (z-score): -0.274
[2]
  glycan array binding signal (z-score): -0.285
[3]
  glycan array binding signal (z-score): -0.293
[4]
  glycan array binding signal (z-score): -0.266
[5]
  glycan array binding signal (z-score): -0.301
[6]
  glycan array binding signal (z-score): -0.302
[7]
  glycan array binding signal (z-score): -0.297
Neu5Ac(a2-3)GalNAc
  glycan array binding signal (z-score): -0.298
[8]
  glycan array binding signal (z-score): -0.302
[9]
  glycan array binding signal (z-score): -0.298
[10]
  glycan array binding signal (z-score): -0.292
[11]
  glycan array binding signal (z-score): -0.29
[12]
  glycan array binding signal (z-score): -0.301
Neu5Ac(a2-6)Gal
  glycan array binding signal (z-score): -0.302
[13]
  glycan array binding signal (z-score): -0.289
Neu5Ac(a2-6)Gal(b1-4)Glc
  glycan array binding signal (z-score): -0.298
[14]
  glycan array binding signal (z-score): -0.296
[15]
  glycan array binding signal (z-score): -0.261
[16]
  glycan array binding signal (z-score): -0.293
[17]
  glycan array binding signal (z-score): -0.281
[18]
  glycan array binding signal (z-score): 0.745
[19]
  glycan array binding signal (z-score): -0.34
[20]
  glycan array binding signal (z-score): -0.273
[21]
  glycan array binding signal (z-score): -0.288
[22]
  glycan array binding signal (z-score): -0.271
[23]
  glycan array binding signal (z-score): -0.257
[24]
  glycan array binding signal (z-score): -0.266
[25]
  glycan array binding signal (z-score): -0.295
[26]
  glycan array binding signal (z-score): -0.291
[27]
  glycan array binding signal (z-score): 2.77
[28]
  glycan array binding signal (z-score): -0.161
[29]
  glycan array binding signal (z-score): -0.267
[30]
  glycan array binding signal (z-score): -0.265
[31]
  glycan array binding signal (z-score): -0.272
[32]
  glycan array binding signal (z-score): -0.289
[33]
  glycan array binding signal (z-score): -0.295
[34]
  glycan array binding signal (z-score): -0.242
[35]
  glycan array binding signal (z-score): -0.291
[36]
  glycan array binding signal (z-score): -0.147
[37]
  glycan array binding signal (z-score): -0.272
[38]
  glycan array binding signal (z-score): -0.096
[39]
  glycan array binding signal (z-score): -0.182
